Results reported in patent US11685745B2, “Substituted benzoxazole and benzofuran compounds as PDE7 inhibitors” (Dart NeuroScience, LLC, priority 2017, dated 2023).

Target: N-terminal truncated recombinant human PDE7B enzyme (Homo sapiens (Human), UniProt Q9NP56)
Assay: biochemical

Structure (SMILES) | IC50 [nM]
O=C1Nc2c(Cl)cc3cc(CN(CCO)Cc4ccccc4)oc3c2C2(CCCCC2)N1 [Example 483, 2′-{[Benzyl(2-hydroxyethyl)amino]methyl}-5′-chloro-7′,8′-dihydro-6′H-spiro[cyclohexane-1,9′-furo[2,3-f]quinazoline]-7′-one] | 100 to 1000
O=C1Nc2c(Cl)cc3cc(C(=O)Nc4ccc(N5CCC(O)CC5)cc4)oc3c2C2(CCCCC2)N1 [Example 325, 5′-Chloro-N-[4-(4-hydroxypiperidin-1-yl)phenyl]-7′-oxo-7′,8′-dihydro-6′H-spiro[cyclohexane-1,9′-furo[2,3-f]quinazoline]-2′-carboxamide] | 10 to 100
CCN(C(=O)c1cc2cc(Cl)c3c(c2o1)C1(CCCCC1)NC(=O)N3)C(C)C [Example 245, 5′-Chloro-N-ethyl-7′-oxo-N-(propan-2-yl)-7′,8′-dihydro-6′H-spiro[cyclohexane-1,9′-furo[2,3-f]quinazoline]-2′-carboxamide] | 10 to 100
CCn1ncc2c(c1=O)CCN(C(=O)c1cc3cc(Cl)c4c(c3o1)C1(CCCCC1)NC(=O)N4)C2 [Example 386, 5′-Chloro-2′-{2-ethyl-1-oxo-1H,2H,5H,6H,7H,8H-pyrido[3,4-d]pyridazine-6-carbonyl}-7′,8′-dihydro-6′H-spiro[cyclohexane-1,9′-furo[2,3-f]quinazoline]-7′-one] | 100 to 1000
CN(C)C(=O)c1nc2cc(Cl)c3c(c2o1)C1(CCCCC1)NC(=O)N3 [Example 181, 5-Chloro-N,N-dimethyl-7-oxo-7,8-dihydro-6H-spiro[[1,3]oxazolo[5,4-f]quinazoline-9,1′-cyclohexane]-2-carboxamide] | 10 to 100
CCCN(CCO)Cc1cc2cc(Cl)c3c(c2o1)C1(CCCCC1)NC(=O)N3 [Example 566, 5′-Chloro-2′-{[(2-hydroxyethyl)(propyl)amino]methyl}-7′,8′-dihydro-6′H-spiro[cyclohexane-1,9′-furo[2,3-f]quinazoline]-7′-one] | 100 to 1000
COCC(C)(C)NC(=O)c1cc2cc(Cl)c3c(c2o1)C1(CCCCC1)NC(=O)N3 [Example 349, 5′-Chloro-N-(1-methoxy-2-methylpropan-2-yl)-7′-oxo-7′,8′-dihydro-6′H-spiro[cyclohexane-1,9′-furo[2,3-f]quinazoline]-2′-carboxamide] | 10 to 100
COCCc1nc2cc(Cl)c3c(c2o1)C1(CCCCC1)NC(=O)N3 [Example 21, 5′-Chloro-2′-(2-methoxyethyl)-6′H-spiro[cyclohexane-1,9′-oxazolo[5,4-f]quinazolin]-7′(8′H)-one] | 10 to 100
O=C1Nc2c(Cl)cc3nc(CN4CCC[C@@H]4CO)oc3c2C2(CCCCC2)N1 [Example 97, 5-Chloro-2-{[(2R)-2-(hydroxymethyl)pyrrolidin-1-yl]methyl}-7,8-dihydro-6H-spiro[[1,3]oxazolo[5,4-f]quinazoline-9,1′-cyclohexane]-7-one] | 100 to 1000
O=C1Nc2c(Cl)cc3cc(C(=O)NCc4ccc5c(c4)COC5)oc3c2C2(CCCCC2)N1 [Example 387, 5′-Chloro-N-(1,3-dihydro-2-benzofuran-5-ylmethyl)-7′-oxo-7′,8′-dihydro-6′H-spiro[cyclohexane-1,9′-furo[2,3-f]quinazoline]-2′-carboxamide] | 10 to 100
CC(=O)N1CCCN(Cc2cc3cc(Cl)c4c(c3o2)C2(CCCCC2)NC(=O)N4)CC1 [Example 486, 2′-[(4-Acetyl-1,4-diazepan-1-yl)methyl]-5′-chloro-7′,8′-dihydro-6′H-spiro[cyclohexane-1,9′-furo[2,3-f]quinazoline]-7′-one] | 10 to 100
CN(Cc1nc2cc(Cl)c3c(c2o1)C1(CCCCC1)NC(=O)N3)C1CCOCC1 [Example 129, 5-Chloro-2-{[methyl(oxan-4-yl)amino]methyl}-7,8-dihydro-6H-spiro[[1,3]oxazolo[5,4-f]quinazoline-9,1′-cyclohexane]-7-one] | 10 to 100
O=C1Nc2c(Cl)cc3nc(C(=O)NC[C@H]4CCOC4)oc3c2C2(CCCCC2)N1 [Example 212, 5-Chloro-7-oxo-N-[(3R)-oxolan-3-ylmethyl]-7,8-dihydro-6H-spiro[[1,3]oxazolo[5,4-f]quinazoline-9,1′-cyclohexane]-2-carboxamide] | 10 to 100
O=C1Nc2c(Cl)cc3ncoc3c2C2(CCCCC2)N1 [Example 13, 5′-Chloro-6′H-spiro[cyclohexane-1,9′-oxazolo[5,4-f]quinazolin]-7′(8′H)-one] | 100 to 1000
O=C1Nc2c(Cl)cc3cc(C(=O)NCCc4cccs4)oc3c2C2(CCCCC2)N1 [Example 271, 5′-Chloro-7′-oxo-N-[2-(thiophen-2-yl)ethyl]-7′,8′-dihydro-6′H-spiro[cyclohexane-1,9′-furo[2,3-f]quinazoline]-2′-carboxamide] | 100 to 1000
COC(=O)CN(C)C(=O)c1nc2cc(Cl)c3c(c2o1)C1(CCCCC1)NC(=O)N3 [Example 191, methyl 2-{1-5-chloro-7-oxo-7,8-dihydro-6H-spiro[[1,3]oxazolo[5,4-f]quinazoline-9,1′-cyclohexane]-2-yl-N-methylformamido}acetate] | 10 to 100
O=C1Nc2c(Cl)cc3nc(C(=O)N4CCN(CC(F)F)CC4)oc3c2C2(CCCCC2)N1 [Example 209, 5-Chloro-2-[4-(2,2-difluoroethyl)piperazine-1-carbonyl]-7,8-dihydro-6H-spiro[[1,3]oxazolo[5,4-f]quinazoline-9,1′-cyclohexane]-7-one] | 10 to 100
O=C1Nc2c(Cl)cc3nc(CN[C@@H]4CCCOC4)oc3c2C2(CCCCC2)N1 [Example 161, 5-Chloro-2-({[(3R)-oxan-3-yl]amino}methyl)-7,8-dihydro-6H-spiro[[1,3]oxazolo[5,4-f]quinazoline-9,1′-cyclohexane]-7-one] | 10 to 100
O=C1Nc2c(Cl)cc3cc(CN4C[C@@H]5[C@@H](CO)[C@@H]5C4)oc3c2C2(CCCCC2)N1 [Example 498, 5′-Chloro-2′-{[(1R,5S,6S)-6-(hydroxymethyl)-3-azabicyclo[3.1.0]hexan-3-yl]methyl}-7′,8′-dihydro-6′H-spiro[cyclohexane-1,9′-furo[2,3-f]quinazoline]-7′-one] | 100 to 1000
CN1CCN(Cc2nc3cc(Cl)c4c(c3o2)C2(CCC(F)(F)CC2)NC(=O)N4)CC1 [Example 10, 5′-Chloro-4,4-difluoro-2′-((4-methylpiperazin-1-yl)methyl)-6′H-spiro[cyclohexane-1,9′-oxazolo[5,4-f]quinazolin]-7′(8′H)-one] | 100 to 1000
Cc1ccc(CNCc2nc3cc(Cl)c4c(c3o2)C2(CCCCC2)NC(=O)N4)cn1 [Example 80, 5-Chloro-2-({[(6-methylpyridin-3-yl)methyl]amino}methyl)-7,8-dihydro-6H-spiro[[1,3]oxazolo[5,4-f]quinazoline-9,1′-cyclohexane]-7-one] | 10 to 100
CCCCNC(=O)c1cc2cc(Cl)c3c(c2o1)C1(CCCCC1)NC(=O)N3 [Example 393, N-Butyl-5′-Chloro-7′-oxo-7′,8′-dihydro-6′H-spiro[cyclohexane-1,9′-furo[2,3-f]quinazoline]-2′-carboxamide] | 10 to 100
O=C1Nc2c(Cl)cc3cc(C(=O)N4CCCC4)oc3c2C2(CCCCC2)N1 [Example 236, 5′-Chloro-2′-(pyrrolidine-1-carbonyl)-7′,8′-dihydro-6′H-spiro[cyclohexane-1,9′-furo[2,3-f]quinazoline]-7′-one] | 10 to 100
